Experimental data: PubChem BioAssay AID488969 (Vanderbilt High Throughput Screening Facility, 2010)
Over roughly 110,000 compounds, “z-score” has its median near -0.1; the highest 2% begin near 2. The list shows a part of the results.

These compounds were tested against Metabotropic glutamate receptor 8 (Rattus norvegicus) (UniProt P70579) (assay: rat mGluR8 modulators via GIRK flux, primary screen, cell-based, thallium flux, HTS (AID 488969)). Conditions: HEK293 rat mGluR8, GIRK (G protein-gated inwardly rectifying potassium channel) thallium flux, FluoZin2; at 10 µM; stronger effect = higher value; submaximal glutamate (EC20) added with thallium.
Sequence of UniProt P70579 (P70579 whole entry, looked up): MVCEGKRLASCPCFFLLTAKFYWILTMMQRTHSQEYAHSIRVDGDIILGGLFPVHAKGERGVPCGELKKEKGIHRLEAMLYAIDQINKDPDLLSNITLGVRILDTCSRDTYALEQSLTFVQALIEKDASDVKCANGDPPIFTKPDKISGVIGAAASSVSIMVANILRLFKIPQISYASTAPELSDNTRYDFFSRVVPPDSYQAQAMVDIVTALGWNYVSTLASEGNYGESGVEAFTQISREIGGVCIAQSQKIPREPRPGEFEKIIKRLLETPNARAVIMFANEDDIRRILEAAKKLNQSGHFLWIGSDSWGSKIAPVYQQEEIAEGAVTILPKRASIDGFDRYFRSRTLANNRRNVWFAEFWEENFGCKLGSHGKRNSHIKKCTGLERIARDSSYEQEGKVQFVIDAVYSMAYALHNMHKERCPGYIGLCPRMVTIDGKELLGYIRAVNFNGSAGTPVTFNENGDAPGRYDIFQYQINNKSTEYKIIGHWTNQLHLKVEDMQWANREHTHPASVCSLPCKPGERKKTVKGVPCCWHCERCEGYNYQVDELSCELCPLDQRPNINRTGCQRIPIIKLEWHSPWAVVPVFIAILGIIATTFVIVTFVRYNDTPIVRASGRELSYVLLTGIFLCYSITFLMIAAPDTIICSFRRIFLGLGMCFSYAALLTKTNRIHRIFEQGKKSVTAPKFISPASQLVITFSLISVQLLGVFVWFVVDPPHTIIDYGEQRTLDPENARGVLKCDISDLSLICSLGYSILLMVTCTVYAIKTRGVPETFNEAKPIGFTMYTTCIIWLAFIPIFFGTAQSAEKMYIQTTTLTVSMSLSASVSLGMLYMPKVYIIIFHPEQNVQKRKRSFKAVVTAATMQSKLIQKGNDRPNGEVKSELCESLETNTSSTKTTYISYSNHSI

Compared with `Cc1cccc(NC(=O)CN2C(=O)S/C(=C\c3cc(C)n(C)c3C)C2=O)c1`, `O=C(NCCN1C(=O)S/C(=C\c2ccc(Cl)c(Cl)c2)C1=O)c1cnccn1` is lower in z-score: 0.326 for the first, -0.143 for the second.

First: CCOC(=O)c1c(C)[nH]c(C(=O)/C(C#N)=C/c2ccc(OC)c(OC)c2)c1C
Second: CCOC(=O)c1c(C)[nH]c(C(=O)NNC(=O)c2ccccc2)c1C
The z-score of the first is lower: -0.195 for the first, -0.147 for the second.

Going from `COc1ccc(S(=O)(=O)NCc2ccc(C(=O)N3CCN(c4ccccn4)CC3)cc2)cc1` to `O=C(Nc1ccc(S(=O)(=O)Nc2nccc(C3Cc4ccccc4C(=O)O3)n2)cc1)c1ccccc1` (stereo unspecified), the z-score rises from -0.536 to 0.132.

Going from `COc1cc(/C=N\N=C2/SC(CC(=O)O)C(=O)N2c2ccc(O)cc2)ccc1O` (stereo unspecified) to `Nc1c(S(=O)(=O)c2ccccc2)c2nc3ccccc3nc2n1/N=C/c1cccc(O)c1`, the z-score falls from -0.0934 to -0.348.

Compared with `Cn1c(=O)[nH]c(=O)c2c1nc(N1CCN(CCO)CC1)n2CCSc1nc2ccccc2s1`, `c1ccc2sc(NC3=NCN(C4CCCCCC4)CN3)nc2c1` is higher in z-score: -0.355 for the first, 0.189 for the second.

Going from `Cc1ccc(-n2nc(C(=O)NCc3ccc(C)o3)c3c4ccccc4n(C)c3c2=O)cc1` to `Cc1ccc2[nH]c(=O)c(-c3nc4c(C)cccn4c3NCc3ccco3)cc2c1`, the z-score rises from -0.398 to -0.357.

Going from `O=C(CCNc1ccc(F)cc1)c1ccco1` to `O=C(CCc1ccccc1)Nc1ccccc1C(=O)NCc1ccco1`, the z-score falls from -0.0171 to -0.244.

Going from `CN(C)c1cccc(C(=O)OCC(=O)Nc2ccccc2-c2ccccc2)c1` to `CC(c1ccccc1C(O)(c1ccccc1)c1ccccc1)N(C)C` (stereo unspecified), the z-score rises from -0.796 to 0.412.

Going from `CCN(CC)CCCNC(=O)C1CCC(=O)N(c2ccc(OC)cc2)C1c1ccc(F)cc1` (stereo unspecified) to `CN(CCNC(=O)CCNC(=O)Cn1ccc2ccccc2c1=O)Cc1ccccc1`, the z-score rises from -0.129 to -0.00516.

Compared with `O=C(Cn1nnc(-c2ccc3c(c2)OCO3)n1)NCc1ccco1`, `CN(C)CCCN1C(=O)C(=O)/C(=C(/O)c2ccc3c(c2)OCO3)C1c1cccnc1` (stereo unspecified) is lower in z-score: -0.0217 for the first, -0.332 for the second.

First: COC(=O)c1ccc(C(=O)OC)c(NC(=O)CSc2cccc[n+]2[O-])c1
Second: Cc1cccc[n+]1CC(=O)Nc1ccc([N+](=O)[O-])cc1Cl
The z-score of the first is higher: 0.589 for the first, 0.0506 for the second.

Compared with `CC(=O)c1cccc(NC(=O)NCc2ccccn2)c1`, `CCC(=O)Nc1nnc(Cc2ccccc2)s1` is higher in z-score: -0.613 for the first, 0.0398 for the second.

Compared with `Cc1ccc(O)c(NC(=O)C2CC(c3c(F)cccc3Cl)=NO2)c1` (stereo unspecified), `Cc1cccc(N=C2NN=C(c3ccc4c(c3)OCCO4)CS2)c1` is higher in z-score: -0.208 for the first, -0.084 for the second.

Going from `CC(=O)C1=C(C)Nc2ncnn2C1c1ccccc1OCc1ccccc1` (stereo unspecified) to `CC1CCCCN1C(=O)Cn1cc(/C=C2/C(=O)Nc3ccccc32)c2ccccc21` (stereo unspecified), the z-score rises from -1.37 to 0.354.

Going from `COc1ccc2c(c1)OCC1=C2CCC2(C)C(=O)CC=C12` (stereo unspecified) to `CCOc1ccc(C(=O)c2nc3c(n2O)CCCC3)cc1`, the z-score rises from -0.184 to 0.0791.

Compared with `Cc1ccc2cc(S(=O)(=O)NCCCC(=O)O)ccc2c1`, `CCOC(=O)C1CCCN(C(=O)c2ccc(CS(=O)(=O)c3ccc(Br)cc3)o2)C1` (stereo unspecified) is lower in z-score: -0.0725 for the first, -0.556 for the second.

Going from `Cc1ccc(C)c(N(C(=O)Cn2nnc3ccccc32)C(C(=O)NC(C)(C)C)c2ccsc2)c1` (stereo unspecified) to `Cn1c(SCc2cccc3ccccc23)nnc1-c1ccco1`, the z-score rises from -0.191 to 2.15.

First: O=C1/C(=C\c2ccccc2)CCc2c1[nH]c1ccccc21
Second: C/C(=C\c1ccccc1)CN1CCN(c2ccccc2)CC1
The z-score of the first is lower: -0.164 for the first, 0.338 for the second.

Going from `CCCCNC(=O)c1onc(CSc2cccc3ccccc23)c1C(=O)O` to `CCOC(=O)c1ccc(COC(=O)c2cc(=O)[nH]c3ccccc23)o1`, the z-score rises from -0.637 to -0.0753.

First: O=C(c1cccs1)N(Cc1ccco1)C1CCS(=O)(=O)C1 (stereo unspecified)
Second: COc1ccccc1NC(=S)N(Cc1ccco1)Cc1cc2cc(C)ccc2[nH]c1=O
The z-score of the first is higher: 0.102 for the first, -0.162 for the second.

Going from `CCCOC(=O)c1ccc(NC(=O)CSC2=Nc3ccccc3C3CC=NN23)cc1` (stereo unspecified) to `Cc1ccc(OCCSCc2nc3ccccc3[nH]2)cc1`, the z-score rises from -0.315 to -0.234.

Going from `Clc1ccc(OCCCN2CCCCC2)c(Br)c1` to `COc1ccc(/C=C2/N=C3CCCCCN3C2=O)cc1OC`, the z-score falls from 0.275 to 0.128.

Going from `CCOC(=O)c1cnc2cc3c(cn2c1=O)CCCC3` to `CCn1cc(/C=N/N=C2\CCC3C4CCc5cc(O)ccc5C4CC[C@]23C)c(C)n1` (stereo partly specified), the z-score falls from 0.699 to 0.315.

Compared with `Cn1nc(C(F)(F)F)c(C#N)c1N1CCN(c2ccccc2F)CC1`, `Cc1nc2sc(C(c3ccc(Br)cc3)N3CC(C)OC(C)C3)c(O)n2n1` (stereo unspecified) is higher in z-score: 0.012 for the first, 0.745 for the second.

First: CCN(CC)c1ccc2cc(-c3nnc(-c4ccccc4)o3)c(=O)oc2c1
Second: O=C(COc1ccccc1)Nc1nnc(-c2ccc(Cl)s2)o1
The z-score of the first is higher: 2.42 for the first, 0.405 for the second.

First: O=C(CCN1C(=O)C2C3CC(C(Br)C3Br)C2C1=O)OCC(=O)c1ccccc1 (stereo unspecified)
Second: Cc1cc2c(C)nc(Cc3ccccc3)nc2o1
The z-score of the first is lower: -0.398 for the first, -0.274 for the second.

First: COc1ccc(OC)c(S(=O)(=O)NC(C)(C)C)c1
Second: COc1cc(NC(=O)CN(C)C2CCCCC2)c(C)cc1[N+](=O)[O-]
The z-score of the first is higher: -0.0387 for the first, -0.669 for the second.

Compared with `C=CCSC1=N/C(=C\c2ccsc2)C(=O)S1`, `CN1C(=O)S/C(=C/c2cccnc2)C1=O` is higher in z-score: -0.538 for the first, 0.119 for the second.
